# Assay results: publication PMC10359594 (Nucleic Acids Research, 2023)
# B1: oxidized SAMHD1 catalytic HD domain ([…]) (domain or fragment)
# chain: not shown
# modifications: disulfide bond between C341 and C350 (oxidized protein)
# Biological target: the molecule itself
# Assay: crystal structure
protein,measurement,value
B1,stoichiometry N,2
